Assay results taken from PubChem BioAssay (Tox21).
Inconclusive results, whose numbers are uncertain, are shown with a selection of clear calls. Potencies of inconclusive entries are left out as doubtful fits. Some structures have more than one record in an assay (separate samples or runs), and their calls can disagree. Active and inactive are the calls of the source. Calls follow the shape of the dose curve; as a rule, active = well fitted curve in the direction sought with a large enough effect in the repeat runs; inconclusive = weak or mixed curves; inactive = no such curve, though single readings can be large; an effect the other way counts as inactive or inconclusive.
Potency is read from the fitted curve at half-maximal effect; tags tell the direction and shape of the fitted curve.

Assay: A CellTox Green Cytotoxicity Assay to monitor cytotoxicity in HepG2 cells - 40 hour (AID 1224879); also: nearly all actives have a fitted effect of over 40% in size
Conditions: CellTox Green fluorescence; series mostly up to 76.8 µM
Method in brief: (§1)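 Continuous culture of HepG2 cells with a membrane-impermeant DNA dye; rising fluorescence marks dead cells. Compound exposure lasted up to 40 h at 37 C, with reads every 8 h from 0 h.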
In the case of `c1ccc(C[P+](c2ccccc2)(c2ccccc2)c2ccccc2)cc1`, the Potency is reported as active: 19.5 µM. With `CC[C@H](NC(=O)c1cc(F)ccc1NS(=O)(=O)c1cccc2cccnc12)c1ccccc1` the Potency was inconclusive [activator, single point]. For `CCCc1nc2c(C)cc(-c3nc4ccccc4n3C)cc2n1Cc1ccc(-c2ccccc2C(=O)O)cc1`, the Potency was “inactive”. In the case of `Nc1cccc2c(N)cccc12`, the Potency is reported as inconclusive [activator, single point]. In the case of `CCCCCCCC/C=C\CCCCCCCCN`, the Potency is reported as inconclusive [activator, single point]. In the case of `O=C1NC(=O)[C@@H]2CC=CC[C@H]12`, the Potency is reported as inconclusive [activator, partial curve]. In the case of `O=C(O)CCCCCCCCCCCC(=O)O`, the Potency is reported as active: 48.2 µM. For `Cc1[nH]cnc1C[C@H]1CCc2c(C)c3ccccc3n2C1=O`, the Potency was active: 33.8 µM. In the case of `CCCCCCCCc1ccc(S(=O)(=O)O)cc1`, the Potency is reported as inconclusive [activator, partial curve, poor fit]. With `O=S(=O)(c1ccc(OCc2ccccc2)cc1)c1ccccc1O` the Potency was inconclusive [activator, single point]. For `c1cc(N(CC2CO2)CC2CO2)ccc1Cc1ccc(N(CC2CO2)CC2CO2)cc1` (configuration not stated), the Potency was inconclusive [activator, single point]. With `O=C(/C=C/c1ccc([N+](=O)[O-])cc1)c1ccccc1` the Potency was active: 21.9 µM. In the case of `CCCCCCC[N+](CC)(CC)CCCCc1ccc(Cl)cc1`, the Potency is reported as active: 23.9 µM.

Assay: qHTS RealTime-Glo MT Cell Viability Assay in HEK293 cells - 0 hour (AID 1224880); also: nearly all actives have a fitted effect of over 45% in size
Conditions: RealTime-Glo luminescence; series mostly up to 76.8 µM
Method in brief: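 qHTS format; HEK293 cells with NanoLuc/prosubstrate reagent, 37 C/5% CO2 for 5 h pre-dosing; compounds 23 nL in DMSO; luminescence at each time point reflects viable cells.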
In the case of `CC1(C)CCC(C)(C)c2cc(NC(=O)c3ccc(C(=O)O)cc3)ccc21`, the Potency is reported as inconclusive [falling, partial curve, poor fit]. For `CCOC(=O)O[C@]1(C(=O)OCCl)CC[C@H]2[C@@H]3CCC4=CC(=O)C=C[C@]4(C)[C@H]3[C@@H](O)C[C@@]21C`, the Potency was inconclusive [falling, partial curve]. In the case of `CC[C@H](NC(=O)c1cc(F)ccc1NS(=O)(=O)c1cccc2cccnc12)c1ccccc1`, the Potency is reported as active: 23.2 µM. With `CCCCCCCC/C=C\CCCCCCCCN` the Potency was inconclusive [rising, partial curve]. With `Fc1ccc([C@@H]2CCNC[C@H]2COc2ccc3c(c2)OCO3)cc1` the Potency was inconclusive [rising, partial curve]. For `Cc1[nH]cnc1C[C@H]1CCc2c(C)c3ccccc3n2C1=O`, the Potency was “inactive”.

Assay: A CellTox Green Cytotoxicity Assay to monitor cytotoxicity in HEK293 cells - 32 hour (AID 1224881); also: nearly all actives have a fitted effect of over 40% in size
Conditions: CellTox Green fluorescence; series mostly up to 76.8 µM
Method in brief: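 Each value comes from one timepoint of a single continuous run in which HEK293 cells with CellTox Green were exposed to compound for up to 40 h at 37 C, dye fluorescence rising with cell death.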
For `c1ccc(C[P+](c2ccccc2)(c2ccccc2)c2ccccc2)cc1`, the Potency was inconclusive [activator, partial curve]. In the case of `Nc1ccc2c3c(cccc13)-c1ccccc1-2`, the Potency is reported as active: 44.1 µM. For `CCCCCCCC/C=C\CCCCCCCCN`, the Potency was active: 23.9 µM. In the case of `Fc1ccc([C@@H]2CCNC[C@H]2COc2ccc3c(c2)OCO3)cc1`, the Potency is reported as inconclusive [activator, single point]. In the case of `O=C(O)CCCCCCCCCCCC(=O)O`, the Potency is reported as inconclusive [activator, partial curve, poor fit]. With `Cc1[nH]cnc1C[C@H]1CCc2c(C)c3ccccc3n2C1=O` the Potency was active: 47.8 µM. For `CCCCCCCCc1ccc(S(=O)(=O)O)cc1`, the Potency was active: 54.5 µM. In the case of `c1cc(N(CC2CO2)CC2CO2)ccc1Cc1ccc(N(CC2CO2)CC2CO2)cc1` (configuration not stated), the Potency is reported as inconclusive [activator, single point]. In the case of `O=C1C=CC(=O)N1c1cccc(N2C(=O)C=CC2=O)c1`, the Potency is reported as inconclusive [activator, full curve, poor fit]. In the case of `CCCCCCC[N+](CC)(CC)CCCCc1ccc(Cl)cc1`, the Potency is reported as active: 5.35 µM.

Assay: A CellTox Green Cytotoxicity Assay to monitor cytotoxicity in HepG2 cells - 0 hour (AID 1224882); also: nearly all actives have a fitted effect of over 35% in size
Conditions: CellTox Green fluorescence; series mostly up to 76.8 µM
Method in brief: as §1
With `Cc1ccc(C(C)(C)C)cc1` the Potency was “inactive”. In the case of `CC1(C)CCC(C)(C)c2cc(NC(=O)c3ccc(C(=O)O)cc3)ccc21`, the Potency is reported as inconclusive [activator, single point]. In the case of `CCN(CC)c1ccc2c(c1)Oc1cc(N(CC)CC)ccc1C21OC(=O)c2ccccc21`, the Potency is reported as inconclusive [activator, partial curve].
